Results on one molecule are retold here after patent US20160145328A1 (published 2016).

The target in this assay is mouse interleukin 21 (mouse, UniProt Q9ES17 18-146). The experiment in a line: SPR (Biacore), biotinylated mIL-21 on streptavidin chip, purified VH injected from 4 µM down. The method, then: The affinities of VH clones G07 (anti-hTNF; SEQ ID NO: 5) and G11 (anti-mIL-21; SEQ ID NO: 6) were measured using surface plasmon resonance (using a Biacore machine; GE Healthcare). For this purpose, biotinylated antigen diluted in PBS was injected over a streptavidin (SA) sensor chip (Biacore AB). Serial dilutions of purified VH (with concentrations ranging from about 0.125 to 4 μM) were injected at a flowrate of about 20 μl/min over the flow cell containing the corresponding target antigen. Equilibrium dissociation constants were calculated using the BIAevaluation 4.1 software package (Biacore AB).
Two clones selected for their binding to human tumour necrosis factor (hTNF) or mouse interleukin 21 (mIL-21) were isolated from the Garvan-I libraries, as detailed above (see Materials and Methods section). […] Biacore affinity measurements of anti-human TNF clone G07 (SEQ ID NO: 5) and anti-mouse IL-21 clone G11 (SEQ ID NO: 6) were performed. Serial dilutions of each purified protein, starting at 4 μM, were run on a streptavidin (SA) chip coated with biotinylated hTNF and mIL-21, respectively.

B1: VHmIL21_G11 (anti-mIL-21 VH) (other, not shown: small tags and cut ends)
VH: QVQLLESGGGLVQPGGSLRLSCAASGFRISDEDMGWVRQAPGKGLEWVSSIYGPSGSTYYADSVKGRFTISRDNSKNTLYLQMNSLRAEDTAVYYCASASNTYEDMLGFWGQGTLVTVSS
notes: also called clone G11; anti-mouse IL-21 clone G11
On to B1, for which the dissociation constant Kd is 4.07 µM.

The term Kd denotes the equilibrium constant for the complex coming apart. Low readings indicate a tighter complex, high ones a looser complex.
